Consider 219 sequences from article PMC10668032.

Some of the results follow. At the low end of the ranking the order means little.

The assay addresses SIX1-Q177R homeodomain (UniProt Q15475). Description: universal protein binding microarray. The note with it: Universal all-10-mer PBM (8x60K, AMADID 030236), 300 nM GST-tagged protein, Alexa Fluor 488 anti-GST; buffer, salt, pH and temperature not stated; high values mean tight binding; most listed sequences are background and not binding sites; double strand, one strand shown.
With CGGACTAA, the binding signal was -0.0476 E-score.
To ATCAGAGC belongs -0.056 E-score; to CGTGCTGC, -0.0896 E-score.
To AGTGAGTA belongs -0.103 E-score; to GAAACGCA, -0.116 E-score; to CCGAGTCA, 0.157 E-score.
Then AACCTGTG, with 0.0858 E-score; and ACATCAAG, with -0.184 E-score; and ACCGCAAA, with -0.00495 E-score.
With CTAGACCA, the binding signal is -0.218 E-score.
Then CAAGATAA, with -0.052 E-score.
In the case of ATCCTACG, the binding signal is -0.0423 E-score.
Then CATGCGCA, with -0.0558 E-score; and CCTGCTAG, with -0.126 E-score; and AGCTGCCG, with -0.213 E-score.
To ACCCTCAT belongs 0.105 E-score.
Regarding GCGCTTAC, the binding signal turned out to be 0.00213 E-score.
Then AAGGTCAG, with -0.0752 E-score.
To ACAGCGGT belongs 0.0128 E-score.
Consider ATTCATGG, for which the binding signal was -0.0775 E-score.
Then AAAGGTGC, with 0.071 E-score; and CTTTTCAA, with -0.0466 E-score; and TAGACACA, with 0.134 E-score.
Regarding GCAACAAA, the binding signal was -0.0111 E-score.
Turning to CTTCAAAG, the binding signal was -0.208 E-score.
Then AATTCGTC, with -0.186 E-score; and GGGTGACA, with 0.302 E-score; and GGATCGTA, with 0.0494 E-score.
Then AAAACCGC, with -0.103 E-score.
With AGCCCAAA, the binding signal is 0.0244 E-score.
To GTGATCCA belongs 0.105 E-score; to CCAGTTCC, -0.176 E-score.
As to GTAAGCCA, the binding signal is -0.0405 E-score.
Then AAATGACA, with 0.0912 E-score; and TATAATCA, with -0.0637 E-score.
To CGCTAAAC belongs 0.0376 E-score; to GACGATCA, -0.182 E-score.
Regarding ACGTTCTC, the binding signal was -0.12 E-score.
To AGGGGTCA belongs 0.28 E-score; to CGTGCAAG, 0.0524 E-score; to TCGCCCAA, -0.0964 E-score.
To TTATTCAA belongs -0.0785 E-score; to AGCATACC, -0.085 E-score; to AATGTATA, -0.0907 E-score.
GAAGGTCA: the binding signal was -0.212 E-score.
To ATTGTTGG belongs -0.133 E-score; to CCAACTAG, 0.223 E-score; to CAATAAGG, -0.233 E-score.
Take ACGTAAGT: the binding signal is -0.206 E-score.
To CGTCGGAA belongs -0.116 E-score.
To GCCTGCCC belongs -0.104 E-score; to CGTACGTA, -0.161 E-score; to CGGTGGAC, 0.0967 E-score.
As for CAGCAATC, the binding signal was -0.137 E-score.
On to CTCCGTTC, for which the binding signal was 0.182 E-score.
Consider CGACAGAC, for which the binding signal is 0.0483 E-score.
To ACACCCGC belongs 0.462 E-score.
GCCTCAGC: the binding signal was -0.209 E-score.
For CCTGAAGA, the binding signal is -0.0439 E-score.
To GCATGTCA belongs -0.215 E-score; to ATACGGTG, 0.276 E-score.
To AGGATTAG belongs -0.0343 E-score; to CAATAAAG, -0.265 E-score; to CAACGTTG, -0.214 E-score.
AAGGGCCC: the binding signal is -0.117 E-score.
Then CAATCGCG, with 0.0223 E-score; and ACAGATTC, with -0.0939 E-score; and TGGCACCA, with 0.137 E-score.
Take CCCCGGCC: the binding signal is 0.233 E-score.
As to AACGAATG, the binding signal is -0.24 E-score.
Then CAACTGGG, with 0.136 E-score; and CCTATCCG, with -0.126 E-score.
Then ATACAAGC, with -0.0959 E-score; and ATATAAAA, with -0.0786 E-score; and CCAACGTA, with 0.0754 E-score.
For the sequence CAGTCACA, the binding signal stood at 0.171 E-score.
Then AGTAAGGG, with 0.0946 E-score; and CTCACAGA, with -0.00915 E-score.
To CTTAAGCC belongs -0.214 E-score.
To AAGGTCTG belongs -0.147 E-score; to GCAGATGA, -0.101 E-score; to ACTGGAGA, -0.14 E-score.
For the sequence ACCTTTGG, the binding signal was -0.0212 E-score.
For the sequence CCATGCGA, the binding signal is -0.0467 E-score.
Then GTAAATGA, with 0.0678 E-score; and CGCACCAC, with 0.206 E-score; and AATGCGCG, with 0.135 E-score.
As for GCGCCATA, the binding signal was -0.0831 E-score.
Regarding ACAGAGAG, the binding signal is -0.21 E-score.
With CCAACGAG, the binding signal is -0.0589 E-score.
For CCGGCCGA, the binding signal is -0.0415 E-score.
As for CCTTACGA, the binding signal came out at 0.0139 E-score.
For the sequence CTTGTCCA, the binding signal was -0.0179 E-score.
To ACATTATA belongs -0.032 E-score.
CTATCCAG: the binding signal was -0.224 E-score.
Then CGGGTGTC, with 0.487 E-score; and ATACGCCG, with 0.0816 E-score.
GAGGCTGC: the binding signal is -0.132 E-score.
As for ACTCTCCG, the binding signal was 0.0305 E-score.
Then AGTTGCGC, with -0.256 E-score; and CTCGTCTC, with -0.104 E-score; and ACGTCTCA, with 0.0643 E-score.
Then TAAAGTAA, with -0.165 E-score.
Consider CCCAAGAA, for which the binding signal came to 0.101 E-score.
To GAGCACGA belongs 0.105 E-score.
Then TTCGTCAA, with -0.0504 E-score; and CTAGTTGA, with -0.0506 E-score; and CAATGCCA, with -0.216 E-score.
To GGAGCGAC belongs -0.0865 E-score; to AAAGTTAA, -0.268 E-score; to CGATTCAC, 0.0658 E-score.
For the sequence CTCACACC, the binding signal was 0.393 E-score.
Consider ACAGTTCC, for which the binding signal was -0.212 E-score.
Then ATATTGCC, with -0.2 E-score; and TCCCGTAA, with -0.142 E-score.
Consider CAGTAGAG, for which the binding signal was -0.0025 E-score.
In the case of AGAATTTA, the binding signal was -0.18 E-score.
As for GCTTGACA, the binding signal is 0.127 E-score.
To ACCACCGG belongs 0.0921 E-score; to ATTCTGTG, 0.0189 E-score; to CTTAATTA, -0.0265 E-score.
To CTAATGGA belongs -0.0333 E-score; to ACGTCACT, -0.0221 E-score.
To GGTGAGGA belongs -0.0479 E-score; to GACGTGCA, -0.0419 E-score; to CCTTAAAA, -0.118 E-score.
For AAATATAG, the binding signal was -0.0852 E-score.
To GGGATAAC belongs 0.118 E-score; to AGTAGTAC, -0.0327 E-score.
On to ATAAATTG, for which the binding signal is 0.124 E-score.
Then CGGATGCA, with -0.0318 E-score.
To GGCGATGA belongs -0.0206 E-score; to AGACACGA, 0.369 E-score; to CGTACCTA, 0.118 E-score.
For CCGTACCA, the binding signal came to 0.0535 E-score.
To CATTGCGG belongs 0.133 E-score; to ATGGTTCA, -0.0461 E-score.
Then ATACGTGA, with 0.0455 E-score; and AGTATGCC, with -0.0511 E-score; and CGTCGTTC, with -0.136 E-score.
For the sequence ACAAACAG, the binding signal was -0.0933 E-score.
Then CCTAAAGA, with 0.046 E-score; and AATACGAG, with 0.0529 E-score.
For the sequence TCAGGGGA, the binding signal amounted to 0.165 E-score.
To GCCTACAA belongs -0.0277 E-score; to GCGATAAC, 0.0213 E-score; to ACGTCTAG, -0.0895 E-score.
To CCTGCGCC belongs -0.112 E-score; to GGAATTCC, -0.153 E-score; to GTAGCTTA, 0.0179 E-score.
Then GGGCCTGA, with -0.0408 E-score; and CTTCGTCA, with -0.0898 E-score; and CGCTATGA, with 0.00818 E-score.
As to GCCATTAA, the binding signal is -0.0682 E-score.
For CCTTGCAA, the binding signal was -0.221 E-score.
Then GCGTCGTA, with -0.0703 E-score; and ACTCGCGG, with 0.053 E-score.
For AGGAGCGA, the binding signal is -0.165 E-score.
As to GCATGGCA, the binding signal is -0.246 E-score.
To TCGGGGCA belongs 0.0738 E-score; to CGAATGCC, -0.164 E-score.
Turning to ACATACGC, the binding signal was -0.019 E-score.
Then TAATCCAA, with -0.00703 E-score; and GCACCACC, with 0.261 E-score; and ACGTTTTA, with -0.137 E-score.
Then CCCCACGC, with 0.124 E-score.
For the sequence ACACGGTA, the binding signal was 0.385 E-score.
To TTAACTAA belongs -0.0764 E-score; to GTTACAAA, 0.0926 E-score; to GTTGTTAA, -0.14 E-score.
To GAACCAGC belongs -0.0582 E-score.
To AAGGATGC belongs -0.221 E-score; to GTATATCA, 0.0538 E-score; to AATGTGAG, -0.0691 E-score.
Regarding TCAGACCA, the binding signal was -0.0454 E-score.
Consider CTATGTCA, for which the binding signal was -0.132 E-score.
In the case of TAGGGGGA, the binding signal came to 0.00812 E-score.
To CCTCCGTA belongs -0.0859 E-score; to AAAAAGAC, -0.21 E-score; to AGGAGCTA, -0.222 E-score.
In the case of AGACATTA, the binding signal was -0.0844 E-score.
To ACTTATTA belongs 0.0898 E-score; to CGATCACG, 0.173 E-score.
For ATACCCTG, the binding signal was found to be 0.31 E-score.
To CTCTAGCA belongs -0.085 E-score; to ATAGAGAC, -0.308 E-score.
Consider GACAGCTC, for which the binding signal was -0.258 E-score.
Consider AACCAGAA, for which the binding signal amounted to 0.0225 E-score.
Then TATGTCCA, with -0.103 E-score; and GTGCCCTA, with 0.000565 E-score; and CCATACCG, with -0.0866 E-score.
Take ACGGCCGA: the binding signal is -0.12 E-score.
Turning to CCATGAAA, the binding signal was -0.117 E-score.
On to AGGTAACA, for which the binding signal was 0.138 E-score.
Then ATGGACGC, with -0.138 E-score; and GATTTAAA, with -0.241 E-score.
For the sequence CAAATGTG, the binding signal is 0.0608 E-score.
Then ATCACCAA, with -0.0707 E-score.
Then CGGACACC, with 0.48 E-score; and GTACCCTA, with 0.124 E-score.
To GACTCTAA belongs -0.0982 E-score; to AGCCACCT, -0.238 E-score.
As for CCACCCCC, the binding signal is 0.209 E-score.
As to GGGGACAA, the binding signal was -0.0265 E-score.
Then GGTTCAAA, with 0.00768 E-score; and CATTCAGG, with -0.231 E-score; and TAAAATCA, with -0.186 E-score.
Regarding CCCCGCGC, the binding signal is 0.111 E-score.
Consider AAATACCA, for which the binding signal was -0.224 E-score.
Then GCATCTAA, with -0.148 E-score.
On to CAAAGAGG, for which the binding signal amounted to 0.0396 E-score.
Take AAAGCAGC: the binding signal was -0.242 E-score.
Turning to ATCGTATC, the binding signal is -0.0294 E-score.
Then CAGTAGTA, with -0.132 E-score.
On to CCTCATCA, for which the binding signal was found to be 0.115 E-score.
Then AGCACCTG, with 0.0803 E-score.
To GTTATCCA belongs 0.0621 E-score.
To AAGTAGAG belongs 0.0576 E-score.
As for ACGAGAAC, the binding signal was -0.1 E-score.
